Experimental findings from PMC8298518 are described below.

The chains behind the UniProt entries cited, without tags or fusion partners.
UniProt Q07820: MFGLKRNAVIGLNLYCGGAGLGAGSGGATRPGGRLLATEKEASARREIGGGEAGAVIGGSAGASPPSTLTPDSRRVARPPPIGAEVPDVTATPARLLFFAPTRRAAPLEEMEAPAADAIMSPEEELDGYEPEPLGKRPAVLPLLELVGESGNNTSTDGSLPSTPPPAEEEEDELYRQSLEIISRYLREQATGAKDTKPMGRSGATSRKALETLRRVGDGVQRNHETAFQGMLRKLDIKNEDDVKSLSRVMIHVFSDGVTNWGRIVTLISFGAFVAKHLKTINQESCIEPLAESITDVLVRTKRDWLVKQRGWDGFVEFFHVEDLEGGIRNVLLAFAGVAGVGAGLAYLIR

No constants are given. Whether binding was seen depends on the method and setting. In cells and extracts the contact can be indirect. Some binding calls cover weakened binding; strength is not graded here. Tags and fused reporters may be left off the sequences shown.

The target of this assay is T1, HA-GBP2 (human) (UniProt P32456).
T1 sequence: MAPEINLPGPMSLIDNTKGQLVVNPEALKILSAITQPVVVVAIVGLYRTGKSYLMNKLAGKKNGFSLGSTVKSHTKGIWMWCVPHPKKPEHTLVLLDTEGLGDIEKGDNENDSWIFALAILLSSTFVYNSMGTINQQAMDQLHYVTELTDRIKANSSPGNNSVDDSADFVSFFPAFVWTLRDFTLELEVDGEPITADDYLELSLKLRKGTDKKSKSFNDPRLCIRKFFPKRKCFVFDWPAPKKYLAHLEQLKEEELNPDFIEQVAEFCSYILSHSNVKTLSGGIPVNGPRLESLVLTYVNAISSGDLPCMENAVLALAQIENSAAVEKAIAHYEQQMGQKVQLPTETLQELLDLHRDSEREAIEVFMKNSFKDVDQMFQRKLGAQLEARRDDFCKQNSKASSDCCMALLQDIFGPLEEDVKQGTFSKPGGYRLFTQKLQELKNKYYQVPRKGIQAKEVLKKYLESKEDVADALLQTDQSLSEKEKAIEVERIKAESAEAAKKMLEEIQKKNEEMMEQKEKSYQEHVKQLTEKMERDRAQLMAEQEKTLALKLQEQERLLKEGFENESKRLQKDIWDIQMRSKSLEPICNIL
Briefly: co-IP; 293T cells (2 x 10^6) cotransfected for 24 h; lysates immunoprecipitated with anti-HA.

Regarding “Flag-tagged MCL-1 WT (from UniProt Q07820 1-350)”, the binding result is listed as “binds”.
